Sequences with one replicate were seen in a single cluster, so their values are uncertain.
System: ATP
Experiment: switch fluorescence ratio, 500 uM ATP over buffer (Cy3 cluster intensity, sum of 5 cycles each) (fold (ratio)); higher = stronger signal-on switching upon ATP binding; sequences stand for … in TCGTCGGCAGCGTCAGATGTGTATAAGAGACAGTTTTTTTTTTTTTTTTTTTTTTTTT…TC
Details: aptamer strand: ATP DNA aptamer (quencher-CACCTGGGGGAGTATTGCGGAGGAAGG + anchor), 100 nM annealed; ATP concentration: 500 uM; one replicate
Procedure, shortened: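 Per cluster, summed Cy3 intensity from the target cycles was divided by that from the buffer cycles to give the fluorescence ratio, then averaged per switch-domain sequence. Clusters outside 100-1000 RFU were excluded. The Cy3-labelled switching-strand clusters, on a modified Illumina MiSeq flow-cell, were annealed to 100 nM quencher-labelled ATP aptamer and imaged in selection buffer, then after 15 min with 500 uM ATP at 22 °C, for five cycles with NaOH stripping and re-annealing between them.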
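Further: ATP exposure 15 min at 22 °C before imaging.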

| Sequence | switch fluorescence ratio |
| --- | --- |
| GCGTTTTTTA | 1.03 |
| CGAGAGTTC | 1.01 |
| ATGAGGGATG | 0.998 |
| GCTTCAGTCC | 1.03 |
| GGGTGAACTA | 0.974 |
| TTTCTCGAGC | 0.985 |
| GGTTGCTTTG | 0.994 |
| GCAACTTATA | 1.07 |
| TTCATCTTTC | 1.12 |
| CGGGCGGATT | 1.01 |
| GTGTTCTAAG | 1.02 |
| GGACTGAGTA | 0.966 |
| CAATCTTGAT | 1 |
| TGCTTTATT | 0.98 |
| AGTCTACCAC | 1 |
| AGAGCACGGT | 0.997 |
| ATTGTATCTC | 0.97 |
| CCTGGTATCC | 1.01 |
| GCCGTTATTT | 0.947 |
| AGACTAATAC | 1.75 |
| AACTTGCTCT | 1.07 |
| TGGTGCTCGT | 1.03 |
| CGCATGAGCC | 1.33 |
| AAGACATTAT | 1.02 |
| ATGCTAAACT | 0.985 |
| GGGACTCTAT | 1.01 |

| Sequence | switch fluorescence ratio |
| --- | --- |
| GATCCCATCG | 0.995 |
| GGTTTTCGTC | 1 |
| CAAAAAGCAT | 0.983 |
| GCCCTATGTC | 1 |
| TTTTTGAGA | 0.997 |
| AGTATTAAGC | 1.02 |
| ACGGCGAAAG | 1.02 |
| GACTTAGTAG | 1.05 |
| TATCAGGGAA | 0.978 |
| GCAACGCACA | 1.18 |
| GAAAAATTAG | 1.02 |
| AAAATTGGCG | 1.06 |
| ATAATGACCC | 1.01 |
| GTTCTCTTTA | 1.01 |
| GAGAGGGCTC | 1.04 |
| GGGCTGCCCG | 1 |
| TCTCATGGTA | 1.04 |
| GTTAGGCAGT | 1.03 |
| CTTCGTCATG | 1.14 |
| CCAAGTAGCC | 1.02 |
| GGTCTTCTA | 1.01 |
| AAAATATAAG | 1 |
| GAATCCTGAG | 1.15 |
| GTATGACCTC | 1 |
| AAAGGCCTCA | 1 |
| CCAATTTGAG | 1.01 |

| Sequence | switch fluorescence ratio |
| --- | --- |
| ATAAACCCAC | 1.33 |
| TTACCGGTGC | 1.12 |
| GGCGCGTGCC | 0.97 |
| CTTTTACGGT | 1.01 |
| TGAATTGAAA | 1 |
| GTTAAGGACT | 1.02 |
| GCAGTGTGAG | 0.94 |
| TCGTCTTGGG | 1.01 |
| TCTATCTTCC | 2.15 |
| GCTCAATTTG | 0.954 |
| CGCATTATGC | 2.03 |
| TTTGGAGCCT | 1.75 |
| CATGGGTGC | 1.06 |
| CCCGGATTGG | 1 |
| TCAAGATCCT | 1.15 |
| GGTGATCCCT | 1.05 |
| TAATCGACTC | 0.994 |
| GACGTTTAAC | 1.22 |
| ACCCGGGTCA | 1.01 |
| GGAAAAAACA | 0.967 |
| GAGGTAAAGG | 0.99 |
| CTACAAGAAG | 1.06 |
| CCTAGAATGA | 0.972 |
| ATCTCAGGGG | 1.87 |

— the supplement of paper PMC10126150
